The results in this text go back to the supplement of paper PMC8674133.

Assay [1] has as its target SARS-CoV-2 Wuhan-Hu-1 spike pseudovirus. Nature of the assay: pseudovirus neutralization IC50; higher = weaker neutralization. How it is done: (§1)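 Single-round luciferase reporter pseudovirus mixed with antibody dilutions and put on 293T-ACE2 cells for 48 h; signal relative to no-antibody wells, four-parameter fit.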
The target is the same in assay [2]. Nature of the assay: pseudovirus neutralization IC90; higher = weaker neutralization. On the procedure:
as §1

Assay [3] deals with SARS-CoV-2 Wuhan-Hu-1 spike receptor-binding domain. Nature of the assay: ELISA binding EC50; higher = weaker binding; ELISA of recombinant human antibody on coated antigen, from 10 µg/ml in fourfold dilutions; four-parameter fit. (In an ELISA, binding on a coated surface is turned into a signal by an enzyme label.)

Recombinant human monoclonal antibodies (heavy:light variable regions). ELISA EC50 on the named antigen, from 10 µg/ml down; IC50 / IC90 against spike pseudovirus on 293T-ACE2 cells, 48 h; lower = stronger. Calls: IC50 above 1,000 ng/ml = non-neutralizing; EC50 above 2,000 ng/ml = non-binder. The source prints 1000 for neutralization that was not reached; it is given as >1000 ng/ml. A few antibodies were first reported in earlier work of the same group. Bounds are passed on as bounds.

B1: C2022 (protein)
chain 1: QVQLQESGPGLVRPSETLSLTCTVSGGSVFSTYSWLSWIRQPPGKGLEWIGDMYHTGTANYNPSLESRVTMSLDRSKNQMSLNLRSVTAADTAVYYCASGRDESKTGYWGQGTLVTVSS
chain 2: DIVMTQSPDSLAVSLGERATFNCKSSQTVLYSPNNKNYLAWFQQKPGQPPKLLIYWASLRESGVPDRFSGSGSATDFTLTISSLQAEDVAVYYCQQYYSPPFTFGQGTKLEIK
For B1, the “pseudovirus neutralization IC50” value in assay [1] is 0.0579 µg/mL. The “pseudovirus neutralization IC90” value in assay [2] stood at 0.348 µg/mL. In assay [3], the “ELISA binding EC50” value came out at 0.00213 µg/mL.

B2: C2402 (protein)
chain 1: QVQLVQSGAELKKPGASVKVSCKASGYLFTGHYIHWVRQAPGQGLEWVAWINPNSGATNFTQKFQGRVTMTRDTSITTVYMQLSRLKSDDSAVYYCARDLSWSRLSGGTDFWGQGTLVTVSS
chain 2: DIQMTQSPSTLSASVRDRVTITCRASQSISSWLAWYQQKPGKAPKLLIYEASSLESGVPSRFSGSGSGTEFTLTIGSLQPDDFATYYCQQYKSYPWTFGQGTKVEIK
For the molecule B2, in assay [1], the “pseudovirus neutralization IC50” value is above 1 µg/mL. Also, in assay [2], the “pseudovirus neutralization IC90” value was above 1 µg/mL. For the same molecule, in assay [3], the “ELISA binding EC50” value turned out to be 0.0308 µg/mL.

B3: C2403 (protein)
chain 1: QVQLVQSGAELKKPGASVKVSCKASGYLFTGHYIHWVRQAPGQGLEWVAWINPNSGATNFTQKFQGRVTMTRDTSITTVYMQLSRLKSDDSAVYYCARDLSWSRLSGGTDFWGQGTLVTVSS
chain 2: DIQLTQSPSSLSASVGDRVTITCRASQSISTYLNWYQQKPGKAPKLLIYAASSLQSGVPSRFSGSGSGTDFTLTISSLQPEDFATYYCQQSYSTGGFFGPGTKVDIK
As for B3, the “pseudovirus neutralization IC50” value in assay [1] was 0.573 µg/mL. In addition, in assay [2], the “pseudovirus neutralization IC90” value was above 1 µg/mL. The “ELISA binding EC50” value in assay [3] amounted to 0.00223 µg/mL.

B4: C2048 (protein)
chain 1: QLQLQESGPGLVKPSETLSLTCTVSGGSISSSSYYWGWIRQPPGKGLEWIGSIYYTGSTYYNPSLKSRVTISVDTSKNQFSLKLSSVTAADTTIYYCARLVGGNGWYGRSLGDNRFDPWGQGTLVTVSS
chain 2: QSVLTQPPSVSGAPGQRVTISCTGSSSNIGAGYDVHWYQQLPGTAPKLLIYGNSNRPSGVPDRFSGSKSGTSASLAITGLQAEDEADYFCQSYDSSLSALQLVFGGGTKLTVL
In the case of B4, the “pseudovirus neutralization IC50” value in assay [1] turned out to be 0.286 µg/mL. Besides, the “pseudovirus neutralization IC90” value in assay [2] was above 1 µg/mL. Besides, the “ELISA binding EC50” value in assay [3] amounted to 0.00397 µg/mL.

B5: C2396 (protein)
chain 1: EVQLVESGGGLIQPGGSLRLSCAASGFIVSTNYMIWVRQAPGKGLEWVSIIYSGGSTFYADSVMGRFTISRDNSKNTLYLQMNSLRADDTAVYYCARGYGDLYFDYWGQGALVTVSS
chain 2: DIQLTQSPSFLSASVGDRVTITCRASQGFGSYLAWYQQKPGKAPKLLIYSSSTSQSGVPSRFSGSGSGTEFTLTISSLQPEDSATYYCQHLTTFGQGTKVEIK
With B5, the “pseudovirus neutralization IC50” value in assay [1] worked out at 0.0107 µg/mL. In addition, the “pseudovirus neutralization IC90” value in assay [2] was determined as 0.0657 µg/mL. Besides, the “ELISA binding EC50” value in assay [3] is 0.00177 µg/mL.

B6: C2023 (protein)
chain 1: QLQLQESGPGLVKPSETLSLTCTVSGGSISSSSYYWGWIRQPPGKGLEWIGSIYYSGSTYYNPSLKSRVTISVDTSKNQFSLKLSSVTAADTAVYYCARQKWLRSDFDYWGQGTLVTVSS
chain 2: NFMLTQPHSVSESPGKTVTISCTGSSGSIASNYVQWYQQRPGSAPTTVIYEDNQRPSGVPDRFSGSIDSSSNSASLTISGLKTEDEADYYCQSYDSSNYYVFGTGTKVTVL
For the molecule B6, the “pseudovirus neutralization IC50” value in assay [1] is above 1 µg/mL. Moreover, in assay [2], the “pseudovirus neutralization IC90” value is above 1 µg/mL. Further, the “ELISA binding EC50” value in assay [3] is 0.00245 µg/mL.

B7: C2438 (protein)
chain 1: EVQLVESGGGFVQPGRSLRLSCAASGFTFDDFAMDWVRQAPGKGLEWVSGISWDSGSIGYADSVKGRFTISRDNAKNSLYLQMNSLRAEDTALYYCAKDILGNYYYYSMHVWGQGTTVTVSS
chain 2: QSALTQPASVSGSPGQSITISCTGTSSDVGGYNYVSWYQQHPGKAPKLMIFDVSYRPSGVSNRFSGSKSGNTASLTISGLQAEDEADYYCSSYTSSSTLGVFGGGTKLTVL
B7: the “pseudovirus neutralization IC50” value in assay [1] was found to be 0.0131 µg/mL. The “pseudovirus neutralization IC90” value in assay [2] is 0.0973 µg/mL. Moreover, in assay [3], the “ELISA binding EC50” value came to 0.00201 µg/mL.

B8: C2047 (protein)
chain 1: EVQLVESGGGLVQPGRSLRLSCAASGFTFDDYGMHWVRQAPGKGLEWVSGISWNSGSIGYADSVKGRFTISRDNAKNSLYLQMNSLRAEDTALYYCAKERAGPQIKTYYYYGLDVWGQGTTVTVSS
chain 2: DIQLTQSPSSLSASVGDRVTITCRASQSISNYLNWYQQKPGKAPKLLIFAASSLQSGVPSRFSGSGSGTDFTLTISSLQPEDFATYYCQHTATFGQGTKLEIK
Take B8: the “pseudovirus neutralization IC50” value in assay [1] was found to be 0.0139 µg/mL. Also, the “pseudovirus neutralization IC90” value in assay [2] amounted to 0.0752 µg/mL. In addition, the “ELISA binding EC50” value in assay [3] was 0.00118 µg/mL.

B9: C2476 (protein)
chain 1: EVQLVESGGGLVQPGGSLRLSCAASGFTFRTYDMHWVRQVAGKGLEWVSAIGTSGDTYYAASVKGRFTISRENAKNSLYLQMNSLRGDDTAVYYCARGADSSNLWYFDLWGRGTLVTVSS
chain 2: DIQLTQSPSSLSASVGDRVTITCRASQSIIRSLNWYQQKPGKAPKLLIYAASSLQSGVPSRFSGSGSGTDFTLTISSLQPEDFATYYCQQSYSMPTITFGQGTRLEIK
Take B9: the “pseudovirus neutralization IC50” value in assay [1] is above 1 µg/mL. For the same molecule, the “pseudovirus neutralization IC90” value in assay [2] is above 1 µg/mL. In assay [3], the “ELISA binding EC50” value is 0.00189 µg/mL.

B10: C2477 (protein)
chain 1: QVQLVQSGAEVKKPGSSVKVSCKASGGTFSSYAINWVRQAPGQGLEWMGGIIPIFGPANYAQRFQGRVTITADESTSTAYMELSSLRSEDTAVYYCARDIEYSPLYGMDVWGQGTTVTVSS
chain 2: DIQLTQSPSSLSASVGDRVTITCRASQSISRYLNWYQQKPGKAPKLLIYGASSLQSGVPSRFSGSGSGTDFTLTISSLQPEDFATYYCQQSYRTPLCTFGQGTKLEIK
Turning to B10, the “pseudovirus neutralization IC50” value in assay [1] was 0.268 µg/mL. In assay [2], the “pseudovirus neutralization IC90” value is above 1 µg/mL. In addition, in assay [3], the “ELISA binding EC50” value stood at 0.00164 µg/mL.

B11: C2398 (protein)
chain 1: QVQLQESGPGLVKPSQTLSLTCTVSGASISSGGDYWSWIRQHPGKGLEWIGYIHHSGSTYYNPSLKSRVTMSVDTSKNQFSLKLNSVTAADTAVYYCARVGDFDWFDTWGQGTLVTVSS
chain 2: EIVLTQSPATLSLSPGERATLSCRASQSVGSYLAWYQQKPGQAPRLLIYDASYRATGIPARFSGSGSGTDFTLTISSLESEDFAVYYCQQRFNWPPITFGQGTRLEIK
As to B11, in assay [1], the “pseudovirus neutralization IC50” value is above 1 µg/mL. The “pseudovirus neutralization IC90” value in assay [2] is above 1 µg/mL. Further, in assay [3], the “ELISA binding EC50” value was 0.00182 µg/mL.

B12: C2394 (protein)
chain 1: QVQLVQSGAEVKKPGSSVKISCKASGGIFSTYAFSWVRQAPGQGLEWMGGIIPIFGAADYAQKFQGRVTITADKLTTTAYMELSSLRSEDTAMYYCARDARGCFHDDVWGSFRDCYNGMAVWGQGTTVTVSS
chain 2: DIQLTQSPSSLSASVGDRVTITCRASQGINNSLAWYQQKPGKVPNLLIYAASTLQPGVPSRFSGSGSGTDFTLTISSLQPEDVATYYCQKGTFGPGTKVDIK
Consider B12, for which, in assay [1], the “pseudovirus neutralization IC50” value worked out at 0.00284 µg/mL. In addition, in assay [2], the “pseudovirus neutralization IC90” value is 0.0181 µg/mL. Besides, in assay [3], the “ELISA binding EC50” value amounted to 0.00195 µg/mL.

B13: C2401 (protein)
chain 1: EVQLLESGGGLVQPGGSLRLSCAASGFAFDTYAMTWVRQAPGKGLDWVSALSPSGGNKYYADSVKGRFTISRDNSKNTLYLQMHSLRAGDTAVYYCAKVWPRSSEGYFFDLWGQGTLVTVSS
chain 2: DIVMTQSPDSLAVSLGERATINCKSSQSVLYSSNNENFLAWYQQKPGQPPKLLIYWASTRESGVPDRFSGSGSGTDFTLTISSLQAEDVAVYYCQQYHSIPLTFGGGTKVEIK
In the case of B13, in assay [1], the “pseudovirus neutralization IC50” value is 0.00306 µg/mL. In addition, the “pseudovirus neutralization IC90” value in assay [2] is 0.0421 µg/mL. In assay [3], the “ELISA binding EC50” value turned out to be 0.00246 µg/mL.

B14: C2400 (protein)
chain 1: QVQLVQSGAEVKKPGASVKVSCKTSGYTFTSYYIHWVRQAPGQGLEWMAMIDPSGGGRSNAQKFQGRVTMTKDTSTSTVYMELNSLKSEDTAVYYCARASWGSTLDYWGQGTLVTVSS
chain 2: DIQLTQSPSSLSASVGDRVTITCRASQSISSYLNWYQQKPGKAPNLLIYGASNLRSGVPSRFSGSGSGTDFTLTISSLQPEDFATYYCQQSYSTPPYTFGQGTKLEIK
For B14, in assay [1], the “pseudovirus neutralization IC50” value was 0.00425 µg/mL. The “pseudovirus neutralization IC90” value in assay [2] amounted to 0.108 µg/mL. The “ELISA binding EC50” value in assay [3] amounted to 0.00245 µg/mL.

B15: C2443 (protein)
chain 1: QVQLQESGPGLVKPSETLSLTCTVSGGSVSSGSYYWSWIRQPPGKGLEWIGYIYYSGSTNYNPSLKSRVTMSIDTSKDQFSLKLSSVTAADMAVYYCAREGLRTLGPPQLPDYFGIDVWGQGTTVTVSS
chain 2: SYELTQPPSVSVSPGQTARITCSGGALPKQYAYWYQQKPGQAPVLVIYKNTERPSGIPERFSGSRSGTTVTLTISGVQAEDEADYYCQSADSSGIYIWVFGGGTKLTVL
Consider B15, for which, in assay [1], the “pseudovirus neutralization IC50” value is above 1 µg/mL. In addition, the “pseudovirus neutralization IC90” value in assay [2] was above 1 µg/mL. The “ELISA binding EC50” value in assay [3] stood at 0.00298 µg/mL.

B16: C2404 (protein)
chain 1: EVQLVESGGGLIQPGGSLRLSCAASGITVSSNYMTWVRQAPGKGLEWVSVIYSGGSTFYADSVKGRFTISRDNSKNTLYLQMNSLRGEDTAVYYCARDAQIYGMDVWGQGTTVTVSS
chain 2: DIQMTQSPSTLSASVGDRVTITCRASQSISSWLAWYQQKPGKAPKLLIYKASTLESGVPSRFSGSGSGTEFTLTITSLQPDDFATYYCQQYNSFFGGGTKVEIK
Regarding B16, in assay [1], the “pseudovirus neutralization IC50” value amounted to 0.056 µg/mL. The “pseudovirus neutralization IC90” value in assay [2] was above 1 µg/mL. For the same molecule, the “ELISA binding EC50” value in assay [3] came to 0.003 µg/mL.
